Source: PubChem BioAssay AID488969 (Vanderbilt High Throughput Screening Facility, 2010)
Whole data set: some 110,000 compounds, median “z-score” near -0.1, cut for the highest 2% near 2. This is one part of the list. Activity calls are given as the source filed them.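 The calls were made as follows: active = z-score in the third read window above 3 or below -3; inactive = the rest.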

What follows are molecules tested against Metabotropic glutamate receptor 8 (Rattus norvegicus) (UniProt P70579) (assay: mGluR8 Gi/Go-coupled signaling modulation – cell-based, rat, thallium flux, HTS, primary screen (AID 488969)). Conditions: HEK293 rat mGluR8, GIRK (G protein-gated inwardly rectifying potassium channel) thallium flux, FluoZin2; at 10 µM; stronger effect = higher value; submaximal glutamate (EC20) added with thallium.
UniProt P70579, sequence (P70579 whole entry, looked up): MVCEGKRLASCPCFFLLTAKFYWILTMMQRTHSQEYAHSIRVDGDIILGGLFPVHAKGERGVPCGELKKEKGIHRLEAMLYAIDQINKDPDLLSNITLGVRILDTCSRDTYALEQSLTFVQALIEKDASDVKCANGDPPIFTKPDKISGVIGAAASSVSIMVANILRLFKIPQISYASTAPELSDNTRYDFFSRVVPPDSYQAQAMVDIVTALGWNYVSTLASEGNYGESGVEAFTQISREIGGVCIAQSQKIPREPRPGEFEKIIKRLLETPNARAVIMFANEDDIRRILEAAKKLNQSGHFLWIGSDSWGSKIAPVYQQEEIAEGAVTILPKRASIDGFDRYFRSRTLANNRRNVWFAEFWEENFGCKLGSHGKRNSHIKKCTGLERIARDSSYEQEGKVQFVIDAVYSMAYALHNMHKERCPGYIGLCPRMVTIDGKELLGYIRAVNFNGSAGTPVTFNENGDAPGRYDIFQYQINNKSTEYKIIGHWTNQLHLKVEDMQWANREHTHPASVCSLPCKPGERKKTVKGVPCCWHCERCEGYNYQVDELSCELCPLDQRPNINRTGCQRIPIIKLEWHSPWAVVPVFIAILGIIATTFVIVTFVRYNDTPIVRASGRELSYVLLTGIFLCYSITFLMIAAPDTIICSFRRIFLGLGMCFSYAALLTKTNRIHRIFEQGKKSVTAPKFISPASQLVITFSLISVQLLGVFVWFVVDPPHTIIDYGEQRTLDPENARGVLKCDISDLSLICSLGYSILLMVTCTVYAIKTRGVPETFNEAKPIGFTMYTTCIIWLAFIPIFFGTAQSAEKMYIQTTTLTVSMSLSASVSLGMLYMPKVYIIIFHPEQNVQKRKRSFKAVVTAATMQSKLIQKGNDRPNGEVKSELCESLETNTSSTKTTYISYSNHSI

SMILES | z-score
COc1ccc(C2=Nc3nc(-c4ccccc4)cn3C(c3ccc(OC)cc3)C2)cc1 (stereo not drawn) | -0.00501
CCN(C(=O)Cn1c(=O)n2nc(CCn3nc(C)cc3C)nc2c2ccccc21)c1cccc(C)c1 | -0.611
CC(C)(C)Nc1nc(NC(C)(C)C)nc(-n2ccnc2)n1 | -0.351
CCc1cccc(CC)c1NC(=O)CSc1nc2ccc(N3C(=O)C4C(C3=O)[C@H]3C=C[C@@H]4C3)cc2s1 (stereo partly drawn) | 0.706
CCOc1ccc2nc(SCC(=O)c3cccs3)sc2c1 | 0.561
COc1cc2ccc(=O)oc2c(O)c1OCC=C(C)C | 0.834
CCOC(=O)c1cc(CC)sc1NC(=O)Cc1ccccc1 | -0.249
N#CC1=C(N)Oc2c(ccc3ccccc23)C1c1cccs1 (stereo not drawn) | -2.19
CCCOc1ccc(/C=c2\sc3nc(-c4ccco4)nn3c2=O)cc1OCC | -1.4
COc1ccccc1-c1c(C)nn2c(N3CCC4(CC3)OCCO4)cc(C)nc12 | 1.46
CCCCn1c(SCC(=O)OCC)nc2c1c(=O)[nH]c(=O)n2C | -0.555
COc1ccc(C2=NO[C@@H]3C(=O)N(c4ccc5c(c4)OCCO5)C(=O)[C@H]23)cc1OC | 0.345
O=C(CSc1nnc(COc2cccc3cccnc23)o1)N1CCN(C(=O)c2ccco2)CC1 | -0.115
c1ccc2c(c1)ncn2CCOCCOCCn1cnc2ccccc21 | 1.07
O=C1CCN(S(=O)(=O)c2ccccc2)C2CCCCC12 (stereo not drawn) | -0.114
O=c1[nH]c2ccc(N/C(=N/S(=O)(=O)c3ccccc3)c3ccccc3)cc2[nH]1 | 0.0277
Nc1nc2ccccc2n1CCOc1ccccc1Cl | 1.42
Cc1ccc(C(=O)CNc2cccc(Cl)c2)cc1 | -0.0331
COc1ccc2c(c1)CCCN2C(N)=O | 0.285
CCOC(=O)c1cc2c(=O)n3ccccc3nc2n(CC(C)C)c1=NC(=O)c1ccco1 | -1.06
CCN1C(=O)c2cccc3c(S(=O)(=O)Nc4ccncc4)ccc1c23 | 1.2
COc1ccc(NC(=O)c2ccc3ccccc3n2)cc1S(=O)(=O)N1CCCCC1 | -0.647
CCc1nc(N)c(C#N)c(-c2cccn2C)c1C | -0.723

SMILES | z-score
CC(C)(C)c1ccc(/C([O-])=C(/C(=S)NCc2ccco2)[n+]2ccccc2)cc1 | -0.191
Fc1ccccc1CNc1ccc(Cl)c(Cl)c1 | 0.179
N#Cc1c(-c2ccc3c(c2)OCO3)ccn2nc(-c3cccc(C(F)(F)F)c3)nc12 | -0.221
COc1ccc(S(=O)(=O)N2CCN(C(=O)c3cccs3)CC2)cc1 | 0.0417
O=C1OC(Nc2ccc(Br)cc2F)c2ccccc21 (stereo not drawn) | -0.197
CCCOc1ccc2oc(=O)c3c(c2c1)CCCN3C(=O)CN(C)Cc1ccccc1 | -0.481
COC(=O)CSc1n[nH]c(-c2ccncc2)n1 | 0.0349
Cc1ccc2[nH]c3c(=O)n(Cc4ccncc4)cnc3c2c1 | 0.0687
COc1ccc(C(O)Cc2nc3ccccc3n2C)cc1OC (stereo not drawn) | -0.323
CCCn1nnc(NC(=O)c2cccnc2Cl)n1 | 0.0465
Oc1ccc(Cl)cc1C=NCCc1ccccc1 | -0.0626
O=C(CSc1nc2ncc(Br)cc2[nH]1)c1cccc([N+](=O)[O-])c1 | 1.67
O=C(NCc1cccnc1)/C(=C\c1ccc(-c2ccc(Cl)c(Cl)c2)o1)S(=O)(=O)c1ccccc1 | -0.237
COc1ccc(N2C(=O)C3CCCN3C2c2cccc(OC)c2)cc1 (stereo not drawn) | -0.0891
CCOC(=O)CCNC(C(=O)OCC)c1ccccc1 (stereo not drawn) | 0.373
COCC(=O)Oc1c(S(=O)(=O)c2ccc(C)cc2)c(C)nn1-c1ccccc1 | -0.0554
CS/C(=N\S(=O)(=O)c1cccs1)Nc1cccc(Cl)c1C | -0.779
COc1ccc2[nH]cc(C(O)CN3CCC(C(N)=O)CC3)c2c1 (stereo not drawn) | -0.153
CCOc1cc(-c2noc(-c3cccnc3)n2)ccc1OC | active: 3.79
COc1ccc2cc3c(N)c(C(=O)NCc4ccco4)sc3nc2c1 | -0.558
CCS(=O)(=O)N1Cc2ccccc2CC1C(=O)Nc1nc2ccc(C)cc2s1 (stereo not drawn) | 0.132
CNC(=S)NNC(=O)c1sccc1OCc1ccccc1 | -0.78
COc1cc2c(-c3ccc(O)cc3)nc3c(c(C)nn3-c3ccccc3)c2cc1OC | 0.0433

SMILES | z-score
Cc1ccccc1NC(=O)CC(O)(C(F)(F)F)C(F)(F)F | 0.117
CCCSc1nc(N)c(C#N)c(-c2ccc(C)cc2)c1C#N | -0.167
CC(=O)Nc1ccccc1C(=O)N1CC(C)OC(C)C1 (stereo not drawn) | 0.0934
CCN(C(=O)COC(=O)c1cc(C)n(-c2ccc(F)cc2)c1C)C1CCS(=O)(=O)C1 (stereo not drawn) | -0.0278
NC(=O)C1CCN(Cc2nc3ccccc3c(=O)[nH]2)CC1 | -0.276
COc1cc(C(=S)N(C)C)ccc1O | 0.406
CCN1CCN(c2nc3c(c(=O)[nH]c(=O)n3C)n2CCSc2nc3ccccc3s2)CC1 | -0.0151
COc1ccc(-c2noc(CSc3nnc(Cc4ccccc4)n3-c3ccc(Cl)cc3)n2)cc1 | 0.663
CCOC(=O)c1csc(NC(=O)c2ccccc2)n1 | 0.302
CC(=O)NCCc1nc2ccccc2[nH]1 | 0.0213
O=S(=O)(NCCc1cn2ccccc2n1)c1ccc2c(c1)OCCO2 | 0.3
Cn1cc(/C=C(\C#N)C(=O)Nc2ncc(Cc3ccc(Cl)cc3)s2)c2ccccc21 | -0.338
Cc1ccc(C(=O)C2CCN(CC(=O)Nc3nc(C)cs3)CC2)cc1 | -0.391
CCNS(=O)(=O)c1ccc(OC)c(C)c1 | 0.021
O=C1CSC(=Nc2cc(Cl)ccc2Cl)N1 | -1.67
COCCCNc1ncnc2sc3c(c12)CCC(C)C3 (stereo not drawn) | -1.23
O=c1oc2ccccc2c(NCc2cccc(F)c2)c1[N+](=O)[O-] | 0.725
CC(=O)Nc1ccc(S(=O)(=O)NCc2ccc(C(=O)NCc3ccc(Cl)cc3)cc2)cc1 | 0.722
CC1Cc2ccccc2N1C(=O)CCNS(=O)(=O)c1cccc2nsnc12 (stereo not drawn) | 0.906
Cc1ccc(-c2csc(SCC(=O)Nc3cc(C)on3)n2)cc1 | -0.101
COC(=O)C(Cc1ccc(OC(=O)c2ccc(Cl)cc2)cc1)N1Cc2ccccc2C1=O (stereo not drawn) | -0.764
Cc1ccc(OCCn2c(C3CC(=O)N(Cc4ccccc4)C3)nc3ccccc32)cc1 (stereo not drawn) | -0.217
CCCn1cnc2c(N)c(C)c(C)cc21 | -2.1

SMILES | z-score
Cc1noc(C)c1C(=O)Nc1sc2c(c1C(N)=O)CCCCC2 | 0.753
O=C(Cn1nc(C(F)F)cc1C(F)F)NNC(=S)Nc1ccc(F)cc1 | 0.291
C=CCNC(=O)/C=C/c1ccc(C(C)C)cc1 | 0.981
Cn1c(NC(=O)C2c3ccccc3Oc3ccccc32)cc(=O)n(C)c1=O | -0.0796
O=C(N/N=C/c1cccc([N+](=O)[O-])c1)C1CC1c1ccccc1 (stereo not drawn) | -0.637
COc1ccc(C(=O)OCc2cc3cccc(C)c3[nH]c2=O)cc1 | -0.397
Cc1sc(NC(=S)NC(=O)c2cccs2)nc1-c1ccc(C(C)C)cc1 | -0.116
Cc1ccc(C)c(OCC(=O)NCCN(C)C)c1 | 0.356
COc1ccc(C)cc1S(=O)(=O)N(CC(N)=O)Cc1ccccc1 | -0.559
O=C(Nc1cccc(-c2nc3ccccc3s2)c1)C1=COCCO1 | -0.63
O=C(O)CCC(=O)N1CCOc2ccc(Cl)cc21 | -0.411
Cc1[nH]oc(=O)c1N=Nc1c(Cl)cccc1Cl | -0.151
C/C(=N\Nc1ccc(C(F)(F)F)cc1[N+](=O)[O-])C(C)C | -0.274
CC(C)c1ccc(NC(=O)Cn2cccc2C2=NC(c3ccccc3)CO2)cc1 (stereo not drawn) | -0.0808
COc1ccc(-n2cnnc2SCC(=O)Nc2cc(C(C)(C)C)nn2-c2ccccc2)cc1 | -0.0813
Cc1ccc(-c2nnc(Sc3nc4ccccc4o3)c3ccccc23)cc1 | 0.082
COc1cccc(CNCCc2c[nH]c3ccccc23)c1OCc1ccccc1 | 1.32
COc1ccc(C(=O)/C=C/Nc2ccc(S(=O)(=O)Nc3onc(C)c3C)cc2)cc1 | -0.218
O=C(CSC1=Nc2ccccc2C2=NC(CC(=O)NC3CCCCC3)C(=O)N12)NCc1ccco1 (stereo not drawn) | -0.187
CSc1nnc(C)c(=O)n1COC(=O)c1ccc(S(=O)(=O)N2CCCC2)cc1 | -0.884
CCOc1ccc(CCNC(=O)CCn2cccc2)cc1OCC | -0.928
COc1cccc2c(=O)n(CC(=O)NC3CCCC3)ccc12 | -0.163
Cc1cccc(C(=O)Nc2onc(C)c2C#N)c1 | 0.177

SMILES | z-score
CCOc1ccc(N2C(=O)CC(/C=C3/N(C)c4ccccc4C3(C)C)C2=O)cc1 (stereo not drawn) | -0.165
CC(C)Cn1c(-c2ccc(Br)o2)n[nH]c1=S | 1.12
CCCCCC(=O)NC(NC(=S)N1CCOCC1)C(Cl)(Cl)Cl (stereo not drawn) | 0.826
O=C(CSc1nnc2ccccn12)NC(=O)NC1CCCCC1 | -0.1
COC(=O)C1=C(C)NC(=O)NC1c1ccccc1 (stereo not drawn) | -0.341
NC(=O)c1noc(C(=O)N(CC(=O)NC2CCCC2)Cc2ccc3c(c2)OCO3)c1N | -0.521
Fc1ccc(CSc2nc3ccccc3[nH]2)cc1 | -0.2
CC(=O)NCCOc1cccc2cccnc12 | 0.331
Cc1ccc(N(C(=O)c2ccccn2)C2(C(=O)NC3CCCC3)CCCCC2)cc1 | -0.136
CCN(CC)S(=O)(=O)c1ccc(C(=O)NCc2cccs2)cc1 | 0.772
C=CCNC(=O)CSc1nnc(-c2ccncc2)n1CCc1ccccc1 | 0.264
CCn1c(SCC(=O)Nc2cc(C)on2)nnc1-c1ccc(S(=O)(=O)N2CCN(C)CC2)cc1 | -0.132
Cc1cc(C)n(C(=O)c2c([N+](=O)[O-])c(C)nn2C)n1 | -0.529
CCOC(=O)C(C(=O)Nc1cccc(C)c1)C1CCCCC1 (stereo not drawn) | 0.442
Cc1cccc2cc(COC(=O)C3CCCCC3)c(=O)[nH]c12 | -0.122
O=S(=O)(Nc1ccccc1Cl)c1ccc(F)cc1 | 0.00935
O=C(/C=C/c1ccccc1Cl)NCCN1CCOCC1 | 0.193
O=C(CSc1ccc(Cl)cc1)Nc1ncccn1 | -0.143
CCCCNC(=O)c1onc(CSc2cccc(Cl)c2)c1C(=O)O | -0.395
CCC(c1nnnn1CCc1ccccc1)N(Cc1ccco1)Cc1cc2c(C)ccc(C)c2[nH]c1=O (stereo not drawn) | -0.165
COc1c(C(=O)Nc2ccc(Cc3ccncc3)cc2)ccc2ccccc12 | -0.24
